In a compilation of properties of binary mixtures (doi:10.1016/j.molliq.2014.07.002):
Some of these densities may be calculated back from excess volumes.

Assay: xn = mol fraction of the nth substance listed
Settings: 101 kPa

CN1CCCC1=O + CCCC[n+]1ccn(C)c1.[Cl-]
x1 = 1
Settings | mass density [kg/m3]
308.15 K | 1019
313.15 K | 1015

CN1CCCC1=O + CC[n+]1ccn(C)c1.COS(=O)(=O)[O-]
x1 = 1
Settings | mass density [kg/m3]
298.15 K | 1026
303.15 K | 1024
308.15 K | 1019

CCCC[n+]1ccn(C)c1.[Cl-] + CN1CCCC1=O
mass density [kg/m3]
Settings | 298.15 K | 303.15 K | 308.15 K | 313.15 K
x1 = 0.0138 | 1028 | 1028 | 1024 | 1019
x2 = 0 | 1075 | 1072 | 1069 | 1063
x2 = 0.01 | – | 1071 | 1068 | –
x2 = 0.0396 | 1073 | 1071 | – | –
x2 = 0.0814 | 1072 | 1070 | 1067 | 1061
x2 = 0.1986 | 1071 | 1069 | 1066 | 1060
x2 = 0.3683 | 1070 | – | – | –
x2 = 0.5125 | 1067 | – | 1062 | 1056
x2 = 0.6367 | – | 1060 | 1057 | –
x2 = 0.704 | 1058 | 1056 | – | 1048
x2 = 0.7466 | 1055 | – | 1049 | 1045
x2 = 0.8415 | 1047 | 1045 | – | –
x2 = 0.8939 | 1041 | 1039 | 1035 | 1031
x2 = 0.9254 | – | – | 1033 | 1028
x2 = 0.9721 | 1030 | 1029 | 1025 | 1021

CC[n+]1ccn(C)c1.COS(=O)(=O)[O-] + CN1CCCC1=O
mass density [kg/m3]
Settings | 298.15 K | 303.15 K | 308.15 K | 313.15 K
x1 = 0.0115 | 1032 | 1031 | – | 1026
x2 = 0 | 1280 | 1276 | 1273 | 1269
x2 = 0.0419 | 1274 | 1271 | 1268 | 1264
x2 = 0.0861 | 1268 | 1265 | 1262 | –
x2 = 0.2085 | 1249 | 1246 | 1244 | 1241
x2 = 0.3825 | 1218 | – | 1214 | 1212
x2 = 0.5291 | 1189 | – | 1185 | 1182
x2 = 0.6518 | 1162 | 1160 | – | 1154
x2 = 0.718 | 1144 | 1143 | – | 1137
x2 = 0.757 | 1133 | 1132 | 1128 | 1125
x2 = 0.8502 | – | 1099 | 1096 | 1093
x2 = 0.8983 | 1079 | 1078 | 1075 | 1073
x2 = 0.9298 | 1064 | – | 1060 | 1059
x2 = 0.9743 | 1040 | 1040 | 1037 | 1035
